# Test results as given in PubChem BioAssay AID463173 (ICCB-Longwood Screening Facility, Harvard Medical School, 2010).
# Screen size: about 52,000 compounds; about 1,700 (3.3%) were called active. No stated cut-off is given here; in the data, active means survival mostly below about 52% (no sharp cut-off); inactive means mostly above about 56%. Some of the results follow.
# Test system: Wild type
# Test: S. aureus survival, RN4220 and DeltatarO strains – OD600, teichoic acid synthesis inhibitors, primary screen (AID 463173)
# Settings: S. aureus RN4220 wild type/DeltatarO growth, OD600, 18 h, active compounds read low, screened at 18.75 µg/mL (by protocol)
row,Structure (SMILES),survival
1,CCC(=O)Nc1nnc(S(=O)(=O)N(C)Cc2ccccc2)s1,inactive: 86%
2,CCOc1ccccc1NC(=O)c1cccc2c1C(=O)N(C1CCCCC1)C2,inactive: 80%
3,COc1cccc(NC(=O)Cn2c(=O)n(-c3ccc(CC(=O)NCC4CCCO4)cc3)c(=O)c3ccccc32)c1 (stereo unspecified),inactive: 103%
4,CCOc1ccc(C(=O)OCc2cc(=O)n3nc(C4CCCCC4)sc3n2)cc1,inactive: 67%
5,CSc1ncc(Cl)c(C(=O)N(Cc2ccccc2Cl)C2CCS(=O)(=O)C2)n1 (stereo unspecified),inactive: 113%
6,Cc1cc(C)cc(NC(=O)NCCn2nnc3cc(S(=O)(=O)N(C)C)ccc32)c1,inactive: 111%
7,CC1Cc2ccccc2N1C(=O)CSc1nnc(-c2ccccc2)o1 (stereo unspecified),inactive: 98%
8,Cc1ccc(C)c(NC(=O)CSc2cn(CC(=O)N3CCCC3)c3ccccc23)c1,inactive: 101%
9,CCCN1C(=O)C(NC(=O)c2ccccc2OC)(C(F)(F)F)C(C(=O)OC)=C1C (stereo unspecified),inactive: 78%
10,O=C(NCC1CCCCC1)C1CCCN1C(=O)NC1CCCCC1 (stereo unspecified),inactive: 106%
11,CCOc1ccccc1C1C(C(=O)Nc2ccccc2OC)=C(C)Nc2nc3ccccc3n21 (stereo unspecified),inactive: 68%
12,Cc1ccc2nc(NC(=O)c3cc(=O)c4cc(C)c(C)cc4o3)sc2c1,inactive: 78%
13,CCOc1ccc(NC(=O)Cc2csc(COc3cccc(C)c3)n2)cc1,inactive: 91%
14,CSc1ccc(CNC(=O)CCn2ccc3cc(S(=O)(=O)N4CCCC4)ccc32)cc1,inactive: 73%
15,O=c1[nH]c(=O)n(CCC2=CCCCC2)c(O)c1/C=C1/C=CC=N1,inactive: 107%
16,COc1ccccc1CNC(=O)c1ccc(C)c(-n2cnc3cccnc32)c1,inactive: 68%
17,C=CCn1c(=O)/c(=C2/Sc3ccccc3N2CC)s/c1=C1/C(=O)NN=C1C,inactive: 70%
18,CCc1nnc2c3ccccc3nc(N3CCN(c4ccc(C)cc4C)CC3)n12,inactive: 74%
19,CCOc1ccc(NC(=O)Cn2c(C)ccc(C#N)c2=O)cc1,inactive: 140%
20,O=C(NCCc1csc(-c2cccnc2)n1)c1cccc(C(F)(F)F)c1,inactive: 73%
21,COc1ccc(CN2C(=O)C(NC(=O)c3ccc(C)cc3)(C(F)(F)F)N=C2c2ccccc2)cc1 (stereo unspecified),inactive: 79%
22,COc1ccc(-c2nn(C)c3sc(C(=O)N4CCN(c5cccc(C)c5C)CC4)cc23)cc1OC,inactive: 77%
23,COc1ccc(C(=O)N/N=C2/SCC(=O)N2C)c(OC)c1,inactive: 104%

row,Structure (SMILES),survival
1,Cc1cc(Br)ccc1NC(=O)c1cc2c(s1)-c1ccccc1SC2,inactive: 78%
2,O=C(CCCn1c(=O)c2cccn2c2cccnc21)NCCc1ccc(Cl)cc1,inactive: 70%
3,CCOC(=O)N1CCc2c(sc3c2c(=O)n(-c2ccc(Cl)cc2)c(=O)n3CC(=O)c2ccc(F)cc2)C1,inactive: 91%
4,COc1ccc(NS(=O)(=O)c2nnc(NC(=O)c3ccccc3F)s2)cc1,inactive: 81%
5,COc1ccccc1NC(=O)CSc1nc2c(oc3ccccc32)c(=O)n1-c1ccc(C)cc1,inactive: 104%
6,CCOC(=O)Nc1nnc(-c2ccccc2)s1,inactive: 126%
7,CC(C(=O)N(C(C)C)C(C)C)N1CCN(C)CC1 (stereo unspecified),inactive: 93%
8,COc1ccc(-n2ccnc(NCCc3ccc(S(N)(=O)=O)cc3)c2=O)cc1,inactive: 53%
9,COc1ncnc(Cl)c1N,inactive: 100%
10,COc1cc(/C=C/c2nc(C#N)c(NC3CCCCC3)o2)cc(OC)c1OC,inactive: 70%
11,O=C(/C=C/c1cn(CC(O)CN2CCCCCC2)c2ccccc12)c1ccccc1 (stereo unspecified),inactive: 67%
12,Cc1ccc(CNc2nc3c(S(=O)(=O)c4ccccc4)nnn3c3ccsc23)cc1,inactive: 98%
13,CCNC(=O)CCSc1nnc(-c2ccc(O)cc2)o1,inactive: 85%
14,COc1cccc(CNC(=O)Nc2cc(C(=O)NCc3cccc(F)c3)ccc2N2CCCC2)c1,inactive: 54%
15,CCC(Oc1ccc(F)cc1)C(=O)Nc1cc(-c2ccc(C)cc2)no1 (stereo unspecified),inactive: 64%
16,CCN(CC)c1ccc(NC(=O)c2cc(CN3CCCC3)on2)c(C)c1,inactive: 73%
17,CCOc1cc(CNC(=O)c2ccc(NC(=O)c3nsc4ccccc34)cc2)ccc1OC,inactive: 99%
18,Cn1c(=O)c2ccccc2n2c(CCC(=O)N3CCN(c4cccc(Cl)c4)CC3)nnc12,inactive: 84%
19,CCOc1ccc(NC(=O)CC2C(=O)N(c3cccc(OC)c3)C(=O)N2C2CCCCC2)cc1 (stereo unspecified),inactive: 80%
20,CCN1CCN(c2csc3ccc(Cl)cc3c2=O)CC1,inactive: 99%
21,Cc1cccc(NC(=O)CSc2nc(-c3cccs3)cc(C(F)(F)F)c2C#N)c1,inactive: 93%
22,CC(=O)N1CCN(CCN2C(=O)C3C4c5ccccc5C(c5ccccc54)C3C2=O)CC1 (stereo unspecified),inactive: 103%
23,COc1ccc(Cl)cc1NC(=O)C(C)n1nnc2sc3c(c2c1=O)CCCC3 (stereo unspecified),inactive: 78%

row,Structure (SMILES),survival
1,COc1ccc2c(C)c(CC(=O)NCCc3ccccc3)c(=O)oc2c1OC,inactive: 86%
2,CC1(C)CC(=O)c2cc(C(=O)NC(C)(C)C)c(=O)n(-c3ccccc3)c2C1,inactive: 111%
3,Cc1cc(C)cc(N2C(=O)CC(c3ccc(C(F)(F)F)cc3)C3=C2COC3=O)c1 (stereo unspecified),inactive: 80%
4,COc1ccccc1C(=O)Nc1cc(-c2cccc(Br)c2)nn1-c1ccccc1,inactive: 115%
5,CCOc1ccc(NC(=O)Cn2nnc(C(=O)OC)c2C(=O)OC)cc1,inactive: 84%
6,Cc1ccc(C(=O)NCC(=O)OCc2cc(=O)n3nc(C4CCCCC4)sc3n2)cc1,inactive: 68%
7,COc1ccc(Cn2c(SCC(=O)NCc3ccccc3)nc3ccccc32)cc1,inactive: 128%
8,Cc1cc(C)n2nc(-c3ccccc3)cc2n1,inactive: 116%
9,Cc1ccc2c(c1)C(c1ccc(F)cc1)N(C(=O)C(C)C)CC(=O)N2 (stereo unspecified),inactive: 95%
10,COc1ccc(C(=O)NC2(C(F)(F)F)C(=O)NC(C)=C2C#N)cc1 (stereo unspecified),inactive: 79%
11,O=c1oc2ccc3ccccc3c2cc1-c1nnc(Nc2ccccc2)s1,inactive: 71%
12,CCc1cccc(NC(=O)Cn2nc(CC)n3c(cc4cc(C)ccc43)c2=O)c1,inactive: 76%
13,Cc1ccc(CCNC(=O)c2sc3ncccc3c2-n2cccc2)cc1,inactive: 101%
14,COc1cc(NC(=O)c2nc3cc(C)c(C)cc3n(C)c2=O)cc(OC)c1OC,inactive: 77%
15,COc1cccc(NC(=O)CSc2nc(O)c(C/C=C/c3ccccc3)c(=O)[nH]2)c1,inactive: 71%
16,COc1ccc(N2CCN(S(=O)(=O)c3ccc(-c4cc(C(F)(F)F)on4)s3)CC2)cc1,inactive: 64%
17,Cc1cc(S(=O)(=O)Nc2cccc(-c3ccc(N4CCOCC4)nn3)c2)c(C)cc1Cl,inactive: 59%
18,CC(=O)Nc1ccc(OCC(O)Cn2ccnc2)cc1 (stereo unspecified),inactive: 119%
19,CCC(=O)Nc1cc(C(=O)NCc2ccc(C)cc2)ccc1S(=O)(=O)c1ccc(C)cc1,inactive: 113%
20,CCc1cccc(C)c1Nc1c(-c2ccc(N(C)C)cc2)nc2ncccn12,inactive: 134%
21,Cc1cccc(OCc2ccc(-c3nc(C#N)c(N4CCN(c5ccccc5)CC4)o3)o2)c1,inactive: 132%
22,Cc1ccc(C)c(CN2C(=O)c3ccccc3Sc3ccc(C(=O)NCc4ccco4)cc32)c1,active: -1%
23,Cc1cc(C)c2oc(C(=O)Nc3c(C(=O)c4ccc(F)cc4)oc4ccccc34)cc(=O)c2c1,inactive: 118%

row,Structure (SMILES),survival
1,CC1CCC(NC(=O)C2(C)Cc3ccccc3C(=O)N2Cc2ccccc2Cl)CC1 (stereo unspecified),inactive: 37%
2,CCN(CC)c1ccc(NC(=O)Cn2c(C)c3cnn(-c4ccccc4)c(=O)c3c2C)c(C)c1,inactive: 91%
3,CCC(C(=O)N1CCN(c2ccccn2)CC1)c1ccccc1 (stereo unspecified),inactive: 115%
4,COC(=O)c1c(-c2cccs2)csc1NC(=O)c1cc(OC)cc(OC)c1,inactive: 79%
5,Cc1ccc(CNC(=O)C(CC(C)C)N2Cc3ccccc3C2=O)cc1 (stereo unspecified),inactive: 136%
6,O=C(NCCSc1c(-c2ccc(Br)cc2)[nH]c2ccccc12)c1ccc(S(=O)(=O)N2CCOCC2)cc1,inactive: 84%
7,CCC(C)(C)C(=O)Nc1nnc(COC)s1,inactive: 122%
8,Clc1cccc(-n2ncc3c(NCCCc4ccccc4)ncnc32)c1,inactive: 69%
9,Cc1cc(C)cc(NC(=O)C(Cc2ccccc2)N2Cc3ccccc3C2=O)c1 (stereo unspecified),inactive: 72%
10,CCN(C(=O)Cn1nc(Cc2cccnc2)c2ccccc2c1=O)c1cc(C)ccc1C,inactive: 83%
11,Cc1ccccc1C(=O)Nc1nnc(S(=O)(=O)N2CCCc3ccccc32)s1,inactive: 97%
12,Cc1ccc(-n2c(=O)c3sccc3n(Cc3cc(=O)n4ccccc4n3)c2=O)cc1,inactive: 73%
13,COc1ccc(C(=O)N2CCC(C(=O)Nc3ccc(OC)cc3OC)CC2)cc1,inactive: 77%
14,Cc1cccc(-c2cc(NC(=O)COc3ccccc3F)n(-c3ccccc3)n2)c1,inactive: 91%
15,Cc1nnsc1C(=O)Oc1ccccc1Cl,inactive: 88%
16,O=C1C(c2ccc(C(F)(F)F)cc2)=C(Nc2ccc(Cl)cc2)c2ccccc21,inactive: 111%
17,COc1cc(N(C(=O)Cn2nnc3ccccc32)C(C(=O)NCC2CCCO2)c2cccn2C)ccc1-n1cnnn1 (stereo unspecified),inactive: 105%
18,CCn1c(C(=O)Nc2cc(C)cc(C)c2)cc2sc(Cl)cc21,inactive: 119%
19,COc1ccc(C(=O)N=c2sc3cc(Cl)ccc3n2C)cc1,inactive: 70%
20,Cc1ccc(NC(=O)CSc2nnc(-c3cc4occc4n3C)n2-c2ccccc2C)cc1F,inactive: 68%
21,CC1CCc2c(nc3ncnn3c2NCCN(C)C)C1 (stereo unspecified),inactive: 102%
22,CSc1ccccc1NC(=O)CCS(=O)(=O)c1nc(-c2cccs2)cc(C(F)(F)F)n1,inactive: 83%
